# In all, about 310,000 compounds went through this assay and about 14,000 (4.5%) showed an effect of 50% or more. The effect is printed as a negative number. The list shows a part of the results.
# Target: human ether-à-go-go-related gene (hERG) potassium channel (human, UniProt Q12809)
# Test: primary screen, population patch clamp on CHO cells stably expressing hERG
# 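Also: peak tail current of the secondary pulse compared with the same well before compound.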
# Sequence of human ether-à-go-go-related gene (hERG) potassium channel (Q12809 whole entry, looked up): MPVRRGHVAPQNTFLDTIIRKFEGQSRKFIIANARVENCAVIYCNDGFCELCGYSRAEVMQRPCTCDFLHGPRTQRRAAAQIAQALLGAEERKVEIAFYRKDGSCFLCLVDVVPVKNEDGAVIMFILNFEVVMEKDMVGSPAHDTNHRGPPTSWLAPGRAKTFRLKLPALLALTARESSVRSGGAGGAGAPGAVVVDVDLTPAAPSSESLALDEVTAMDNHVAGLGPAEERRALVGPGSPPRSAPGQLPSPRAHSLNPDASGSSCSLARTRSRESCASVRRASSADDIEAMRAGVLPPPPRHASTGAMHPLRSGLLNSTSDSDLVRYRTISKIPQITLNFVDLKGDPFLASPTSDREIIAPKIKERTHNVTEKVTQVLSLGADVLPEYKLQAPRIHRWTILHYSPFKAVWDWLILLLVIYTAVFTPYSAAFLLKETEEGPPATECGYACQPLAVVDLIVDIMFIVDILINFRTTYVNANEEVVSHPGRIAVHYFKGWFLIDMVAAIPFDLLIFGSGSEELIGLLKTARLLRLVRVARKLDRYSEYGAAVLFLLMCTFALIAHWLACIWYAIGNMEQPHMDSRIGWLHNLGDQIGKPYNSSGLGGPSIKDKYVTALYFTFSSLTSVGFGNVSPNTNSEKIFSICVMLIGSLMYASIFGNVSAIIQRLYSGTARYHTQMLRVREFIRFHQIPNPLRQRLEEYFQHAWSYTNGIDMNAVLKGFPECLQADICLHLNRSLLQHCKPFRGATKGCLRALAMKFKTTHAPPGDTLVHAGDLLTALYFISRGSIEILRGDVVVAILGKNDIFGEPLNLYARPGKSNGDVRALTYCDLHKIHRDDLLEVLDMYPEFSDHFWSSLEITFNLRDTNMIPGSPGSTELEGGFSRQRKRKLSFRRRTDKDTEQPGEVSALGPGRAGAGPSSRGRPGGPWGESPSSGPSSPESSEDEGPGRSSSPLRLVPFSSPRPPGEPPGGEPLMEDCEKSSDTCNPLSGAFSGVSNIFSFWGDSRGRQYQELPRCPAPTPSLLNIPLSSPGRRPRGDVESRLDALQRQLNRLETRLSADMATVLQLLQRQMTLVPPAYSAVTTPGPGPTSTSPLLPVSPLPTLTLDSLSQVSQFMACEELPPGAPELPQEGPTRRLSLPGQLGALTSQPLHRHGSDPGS
row,SMILES,"hERG current change (%, negative = inhibition) at 10uM [%]"
1,N#CCCn1cc(C(=O)Nc2ccc(C(=O)O)cc2)c(-c2ccc([N+](=O)[O-])cc2)n1,23.2
2,O=C(CSc1nnc(NC2CCCCC2)s1)NC1CCS(=O)(=O)C1 (stereo not drawn),-0.507
3,COc1ccccc1OCCNC(=O)CC(NC(C)=O)c1ccccc1 (stereo not drawn),26.1
4,CCCCn1c(N)c(N(CCOC)C(=O)C2CC(=O)N(Cc3ccc(C)cc3)C2)c(=O)[nH]c1=O (stereo not drawn),-13.3
5,CC(C)(CN1CCCCC1)NS(=O)(=O)c1ccc(Cl)cc1,-13.4
6,COC(=O)c1cc(OC)c(OC)cc1N1C(=O)CC(C)(C)CC1=O,15.4
7,O=S(=O)(Cc1cc(-c2ccccc2)no1)c1ccccc1,-2.75
8,O=C(OCc1ccccc1Cl)C1CC(=O)N(Cc2ccco2)C1 (stereo not drawn),11.4
9,CC(C(=O)O)N(C(=O)c1ccccc1)c1ccc(F)c(Cl)c1 (stereo not drawn),14.4
10,CCN(CC(=O)Nc1ccccc1C(F)(F)F)C(=O)CSCc1ccc(C)cc1,9.52
11,CCOc1ccccc1C(=O)Nc1cc(C)ccc1NC(=O)c1ccco1,-75.3
12,COc1cccc(OCc2cc(/C=N/NC(=O)c3ccn[nH]3)ccc2OC)c1,4.71
13,CCS(=O)(=O)N1Cc2ccccc2CC1C(=O)N(C)CC(=O)Nc1ccc(F)c(F)c1F (stereo not drawn),-8.88
14,Cc1ccc(NC(=O)C2CCCN(S(=O)(=O)c3cccs3)C2)cc1 (stereo not drawn),0.928
15,COc1ccc(CN2CCC(C(=O)c3ccc(Cl)cc3)CC2)cc1,-78.7
16,Cc1c(C)n(CCCN(C)C)c2ncnc(Nc3ccccc3)c12,-29.3
17,COc1ccc(CCN(Cc2cc3cc(C)cc(C)c3nc2Cl)C(=O)C2CC2)cc1,14.5
18,Cc1ccsc1/C=N/Nc1cccc(C(=O)O)c1,15.9
19,O=C(Nc1ccccc1)c1ccccc1O,8.51
20,COc1ccc(C(=O)O)c(OC)n1,8.66
21,O=S(=O)(c1ccc(Cl)cc1)N1CCN(S(=O)(=O)N2CCCCCC2)CC1,21.1
22,O=C1COc2ccc(C(=O)COC(=O)C3CCN(S(=O)(=O)c4cccs4)CC3)cc2N1,-11

row,SMILES,"hERG current change (%, negative = inhibition) at 10uM [%]"
1,CCCOc1ccc(/C(O)=C2/C(=O)C(=O)N(CCCn3ccnc3)C2c2cccs2)cc1 (stereo not drawn),34.3
2,CCCCC1=CC2=C(c3ccco3)C(=O)C(C)(OC(=O)c3ccc(OC)cc3)C(=O)C2=CN1C1CCCC1 (stereo not drawn),-8.17
3,CCc1nnc(NS(=O)(=O)c2ccc(N3C(=O)c4ccccc4C3=O)cc2)s1,18.1
4,CC(=O)N1CCN(CC(O)Cn2c3ccccc3c3ccccc32)CC1 (stereo not drawn),7.81
5,O=C(O)c1ccc(S(=O)(=O)N2CCCCCC2)cc1,12.6
6,Cc1ccnc(NC(=O)c2ccccc2NC(=O)c2ccc(Cl)cc2Cl)c1,-1.05
7,CCN1C(=O)/C(=C/C2=Cc3ccccc3OC2C)SC1=S (stereo not drawn),14.7
8,Cc1ccc(S(=O)(=O)Nc2ccncc2)c(C)c1N(C)S(=O)(=O)c1ccc(F)cc1,12.1
9,COc1cc(NC(C(=O)Nc2cccc(C(C)=O)c2)c2ccccc2)cc(OC)c1OC (stereo not drawn),-7.54
10,O=C(c1ccccc1)[C@@H]1[C@@H](C(=O)c2ccc(F)cc2)[C@@]2(C(=O)Nc3ccccc32)[C@H]2c3ccccc3C=CN12,1.2
11,Cc1ccc(S(=O)(=O)NC(C)CCc2ccccc2)cc1C(N)=O (stereo not drawn),-3.11
12,CCCCN1CCNC[C@@H]1Cc1ccc(O)cc1,16
13,Cn1nnnc1SCC(=O)Nc1nc2c(s1)CCCC2,-8.16
14,COc1ccc(Nc2nc(N)nc(CSc3nccc(C)n3)n2)cc1,6.43
15,Cc1ccc(CCNS(=O)(=O)c2ccc3c(c2)NC(=O)CCS3)cc1,0.516
16,COc1ccc(-n2ncc3c(=O)n(CC(=O)OCc4ccccc4)cnc32)cc1,15
17,Cc1cc(NC(=O)CSc2nnc(Nc3ccccc3C)s2)no1,-1.11
18,Cc1cc(N2CCCC2=O)ccc1S(=O)(=O)N1CCOCC1,3.6
19,CCS(=O)(=O)c1nc(S(=O)(=O)c2ccc(C)cc2)c(NCCCN2CCCC2=O)s1,-11.3
20,Cc1nn(Cc2ccccc2Cl)c(C)c1C(=O)NCc1ccco1,-2.41
21,CCN(CC(=O)Nc1ccccc1OC)C(=O)C1CC2C=CC1C2 (stereo not drawn),18.2
22,COCCNC(=O)Cn1c(=O)oc2cc(S(=O)(=O)N3CC(C)CC(C)C3)ccc21 (stereo not drawn),11.5

row,SMILES,"hERG current change (%, negative = inhibition) at 10uM [%]"
1,c1cncc(C2OCC3(CO2)COC(c2cccnc2)OC3)c1 (stereo not drawn),17.9
2,COc1ccccc1Nc1nc(Cl)nc(NC(C)(C)C)n1,-22.8
3,CC(C)CCn1c(=O)c2ccccc2n2c(CCC(=O)NCC3CCCO3)nnc12 (stereo not drawn),-1.79
4,Cc1cc(C)c(C(=O)OCc2csc(CC(=O)Nc3ccccc3C)n2)c(C)c1,-24.1
5,COc1ccccc1C1CC(=O)n2c(nc(-c3ccccc3)c2-c2ccccc2)S1 (stereo not drawn),4.8
6,CN(C(=O)c1ccco1)c1nc2c(s1)CCCC2,-8.65
7,CS(=O)(=O)c1ccc(Sc2nc3ccccc3s2)c([N+](=O)[O-])c1,4.81
8,Cc1cc(NC(=O)c2noc3c2CCCC3)nn1Cc1ccc(Cl)cc1,6.42
9,O=C(NCC(c1ccco1)N1CCc2ccccc2C1)c1ccccc1Br (stereo not drawn),-37.5
10,CC(C)[C@H](NC(=O)c1cccc(S(=O)(=O)N2CCCC2)c1)c1nc2ccccc2[nH]1,9.05
11,CCOC(=O)c1c(NC(=S)NC(=O)c2cnn(CC)c2)sc2c1CCC(C)C2 (stereo not drawn),6.11
12,CCNC(=O)CSc1nc2ccccc2c(=O)n1-c1cc(OC)ccc1OC,3.82
13,Cc1sc(NC(=O)CSC2=NCCS2)nc1-c1ccccc1,6.49
14,CCOC(=O)/C=C1\SCC(=O)N1CC(=O)NC1CCCCC1,-3.71
15,O=S1(=O)CCOC[C@H](Cc2ccccc2)N1Cc1cccc(Cl)c1,-8.55
16,CN(CC(=O)Nc1cccc(F)c1)C(=O)CCCc1c[nH]c2ccccc12,-27.1
17,COc1cccc(COC(=O)C2CC(=O)N(Cc3ccc(C)cc3)C2)c1OC (stereo not drawn),-28.7
18,Cc1nn(Cc2ccccc2Cl)c(C)c1C(=O)OCC(=O)NC1CCS(=O)(=O)C1 (stereo not drawn),6.13
19,Cn1c(-c2cc(Cl)ccc2O)nc2c1c(=O)[nH]c(=O)n2Cc1ccccc1,12.8
20,CCN(CC)S(=O)(=O)c1ccc(/C=C/C(=O)Nc2ccc(N3CCOCC3)cc2)cc1,1.16
21,CC(C)CNC(=O)c1cc([N+](=O)[O-])ccc1N1CCCCC1,-10.6
22,CC(C)OP(=O)(OC(C)C)C(Nc1ccccc1)c1ccc2c(c1)OCO2 (stereo not drawn),-19.8

row,SMILES,"hERG current change (%, negative = inhibition) at 10uM [%]"
1,CCOc1cc(C(=S)N2CCOCC2)ccc1OC(=O)c1ccc(C)cc1,6.19
2,Cc1ccc(-n2c(CNc3ccc(F)cc3)nnc2SCC(=O)N2CCOCC2)cc1,-35.4
3,Fc1ccccc1/C=N/Nc1cc(N2CCCCC2)ncn1,6
4,FC(F)(F)c1nc(Sc2ncccc2C(F)(F)F)n[nH]1,15.2
5,O=C(c1ccc2nc(Cc3ccccc3F)oc2c1)N1CC[C@H](O)C1,13.7
6,CC12CCCCC1NS(=O)(=O)OC2 (stereo not drawn),14.8
7,CCOC(=O)c1ccc(S(=O)(=O)NCCN(CC)CC)cc1.Cl,11.4
8,CCN1CCCC1CN(Cc1cc2ccc(C)cc2[nH]c1=O)C(=S)Nc1ccc(OC)cc1OC (stereo not drawn),-74.5
9,O=C(CN1C(=O)S/C(=C\c2cccc(Cl)c2)C1=O)NCCCn1ccnc1,-51.2
10,Cc1nc(SCc2ccc(Cl)c(Cl)c2)n[nH]1,13.6
11,O=C(Nc1ccc(CN2CCCCC2)cc1)c1ccc2c(c1)OCO2,-64.3
12,O=C(CSc1cn(CC(=O)N2CCCC2)c2ccccc12)NCC1CCCO1 (stereo not drawn),9.72
13,COc1ccc(C(=O)NC(=S)Nc2ccc(N3CCOCC3)c(Cl)c2)cc1[N+](=O)[O-],2.76
14,CCOC(=O)c1c(NC(=S)Nc2ccccc2)sc2c1CCN(CC)C2,-81.5
15,Cc1sc2nc(C(C)C)nc(SCC(=O)NCc3ccco3)c2c1C,2.82
16,C=CCSC1=N/C(=C\c2ccc(C)o2)C(=O)S1,12.8
17,CCOc1ccccc1N1C(=O)CC(=O)NC1=O,17.3
18,Cc1ccc(OCCCC(=O)N2CCOCC2)c(C)c1,2.96
19,Cc1ccc(C(C)C)c(OCC(=O)Nc2ccc(N3CCN(S(C)(=O)=O)CC3)cc2)c1,1.13
20,Cc1nc(CS(=O)(=O)c2ccc(Cl)cc2)cc(Sc2ccc(Cl)cc2)n1,-10.4
21,Nc1nc(-c2ccccc2)cc(-c2ccccc2)n1,15.4

# Reference: PMC4336329 (PLoS ONE, 2015)
